# Publication PMC4336329 (PLoS ONE, 2015)
# Screen size: about 310,000 compounds; about 2,200 (0.71%) showed an effect of 50% or more. The effect is printed as a negative number. The list shows a part of the results.
# Target: human ether-à-go-go-related gene (hERG) potassium channel (human, UniProt Q12809)
# Test: primary screen, population patch clamp on CHO cells stably expressing hERG
# human ether-à-go-go-related gene (hERG) potassium channel, sequence (Q12809 whole entry, looked up): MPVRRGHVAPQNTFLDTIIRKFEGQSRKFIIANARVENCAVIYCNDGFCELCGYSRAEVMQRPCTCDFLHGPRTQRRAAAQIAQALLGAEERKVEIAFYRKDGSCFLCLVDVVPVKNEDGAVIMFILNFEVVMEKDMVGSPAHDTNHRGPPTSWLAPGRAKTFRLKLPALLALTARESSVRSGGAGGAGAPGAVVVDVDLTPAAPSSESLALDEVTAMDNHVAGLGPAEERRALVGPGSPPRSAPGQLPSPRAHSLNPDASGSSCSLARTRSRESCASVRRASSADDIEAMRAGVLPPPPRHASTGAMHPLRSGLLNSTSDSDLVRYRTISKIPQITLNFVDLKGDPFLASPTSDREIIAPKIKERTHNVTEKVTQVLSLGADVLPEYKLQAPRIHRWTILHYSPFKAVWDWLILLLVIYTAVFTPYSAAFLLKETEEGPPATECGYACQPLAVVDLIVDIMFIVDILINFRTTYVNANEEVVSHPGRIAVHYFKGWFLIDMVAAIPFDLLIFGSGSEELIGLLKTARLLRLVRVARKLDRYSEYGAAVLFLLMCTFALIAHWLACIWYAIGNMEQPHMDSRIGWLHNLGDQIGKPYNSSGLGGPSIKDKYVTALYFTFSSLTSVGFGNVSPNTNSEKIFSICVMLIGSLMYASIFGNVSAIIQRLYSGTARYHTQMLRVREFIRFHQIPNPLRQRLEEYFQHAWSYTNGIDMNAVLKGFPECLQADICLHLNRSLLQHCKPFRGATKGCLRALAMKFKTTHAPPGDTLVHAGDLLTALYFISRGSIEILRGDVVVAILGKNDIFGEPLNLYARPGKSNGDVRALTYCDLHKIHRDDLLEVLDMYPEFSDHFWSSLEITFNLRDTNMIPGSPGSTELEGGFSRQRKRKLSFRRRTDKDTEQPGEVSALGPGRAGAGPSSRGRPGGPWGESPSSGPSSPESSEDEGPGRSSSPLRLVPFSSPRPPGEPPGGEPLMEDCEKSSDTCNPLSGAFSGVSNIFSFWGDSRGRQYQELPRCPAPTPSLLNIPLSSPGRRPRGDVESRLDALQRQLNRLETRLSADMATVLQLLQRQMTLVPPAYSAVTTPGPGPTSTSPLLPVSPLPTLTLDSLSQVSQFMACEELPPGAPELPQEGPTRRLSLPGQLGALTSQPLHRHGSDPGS
row,Structure (SMILES),"hERG current change (%, negative = inhibition) at 1uM [%]"
1,Cc1ccc(NC(=O)COc2ccc(/C=C3/SC(=Nc4ccccc4)N(Cc4cccnc4)C3=O)cc2)cc1,9.38
2,Cc1nccn1CCCNC(=O)CC1C(=O)NCCN1Cc1ccc(Cl)c(F)c1 (stereo not drawn),11.3
3,Cc1ccc(S(=O)(=O)n2ccc(=O)[nH]2)cc1,5.78
4,Cc1ccc(-c2cnc(-c3ccccc3C(=O)O)o2)cc1,14.1
5,CCN(CC)CC(O)Cn1c(C)c(-c2ccccc2)c2cc([N+](=O)[O-])ccc21.Cl (stereo not drawn),-18.5
6,Cc1cccc(C)c1NC(=O)COC(=O)c1nonc1N,9.37
7,COC(=O)c1c(NC(=O)CSc2nnnn2C)sc(C)c1C,-2.2
8,Cc1[nH]c2ccccc2c1C(=O)C(=O)NCCc1ccc(S(N)(=O)=O)cc1,3.85
9,COCCCC1CCN(C(=O)c2cc(COc3cc(C)ccc3C)on2)CC1,9.02
10,COc1cc(-c2nc(-c3cccc(C)c3)no2)cc(OC)c1OC,0.586
11,O=C(O)CC(C(=O)OC1CCCCC1)N1CCOCC1 (stereo not drawn),16.5
12,Fc1ccc(Oc2nc(-c3ccccc3)nnc2C(F)(F)F)cc1,6.08
13,CC1=C(C(=O)OC(C)(C)C)C(c2ccc3ccccc3c2)NC(=O)N1C (stereo not drawn),10
14,COc1ccc(NC(=O)CN(C)C(=O)CCNS(=O)(=O)c2ccc(Br)cc2)cc1,8.44
15,CC(C)(C)c1[nH]nc2c1C(C1C=CCCC1)C(C#N)=C(N)O2 (stereo not drawn),0.944
16,NC(=O)c1cccnc1Oc1ccccc1,10.3
17,Cc1ccc(C(=O)N2CCN(C(=O)c3ccc(C)cc3)C2)cc1,0.274
18,CN(C)CCCN1C(=O)C(O)=C(C(=O)c2cccs2)C1c1cccc([N+](=O)[O-])c1 (stereo not drawn),9.28
19,C=CCNC(=S)N/N=C/c1cn(-c2ccccc2)nc1-c1ccc(OC)cc1,14.4
20,Cc1ccc(-c2n[nH]c(=S)c3ccccc23)cc1S(=O)(=O)NCC1CCCO1 (stereo not drawn),13
21,Cc1nn2c(c1-c1ccccc1)N=C(c1ccco1)CC2c1ccccc1 (stereo not drawn),11.2
22,CCC1S/C(=N/N=C/c2ccco2)N(Cc2ccccc2)C1=O (stereo not drawn),8.47
23,c1cncc(CNc2nc(-c3cccnc3)nc3ccccc23)c1,-1.23
24,Cc1ccc(NC(=O)Cc2nnc(SCC(=O)c3ccc(Br)cc3)n2C)cc1,7.32
